Results from PubChem BioAssay AID504832 (National Center for Advancing Translational Sciences (NCATS), 2011).
Values joined by “and” are separate entries in the source; they are usually repeats but may differ in a detail not shown here. Equal values may be shown once. Hit rate of the full screen: of about 310,000 compounds, about 18,000 (5.8%) were called active. The inconclusive results got no clear call from the source; some entries with a clear call stand among them for comparison. Calls come from the whole dose curve; as a rule, active = well fitted inhibition curve with a large enough effect; inconclusive = small, poorly fitted or top-dose-only effect, or another doubt; inactive = no such curve, though single readings can be large or run the other way. Where the call is inconclusive, the potency comes from a doubtful curve fit.

test: Primary qHTS for delayed death inhibitors of the malarial parasite plastid, 48 hour incubation; conditions: P. falciparum luciferase growth in erythrocytes; series mostly up to 28.7 µM
Summary of the method: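 Here the parasites carry a stable luciferase gene and grow inside erythrocytes in Albumax-based RPMI medium with compound for one erythrocytic cycle. Activity is scored as loss of luminescent signal.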
% is set by controls: 0 for no effect and ±100 for the full control effect; potency is the fitted concentration of half-maximal effect; tags give direction and shape of the fitted curve.

| Compound | Potency | activity change, negative = inhibition |
| --- | --- | --- |
| CN(CC(=O)Nc1ccc(Cl)c(C(F)(F)F)c1)C(=O)c1cccc2cccnc12 | inconclusive: 18.5 µM [inhibitor, single point] | – |
| NC(=O)c1ccc(N=Nc2c(O)c3ccccc3[nH]c2=O)cc1 | active: 2.62 µM | – |
| Cc1cc(Cl)c(S(=O)(=O)NC(C)C)cc1OCC(N)=O | inactive | – |
| COc1ccccc1N1CCN(CC(O)c2ccc3cc[nH]c3c2)CC1 (stereo not given) | inconclusive: 13.1 µM [inhibitor, single point] | – |
| Cn1nnnc1SCC(=O)Nc1ccccc1C(N)=O | – | inactive: -38.4% [at 1.15 µM] |
| O=C(Oc1ccc2[nH]cc(CCN3C(=O)c4ccccc4C3=O)c2c1)c1ccco1 | inactive | – |
| C=CCn1cc(C(=O)NCCCOC)c(=O)c2cc(S(=O)(=O)N(CC)CC)ccc21 | inconclusive: 18.5 µM [inhibitor, single point] | – |
| O=C(NCc1ccco1)c1ccc(S(=O)(=O)N2CCCCC2)cc1 | inactive | – |
| COc1ccc(-c2c(C)nc3c(-c4ccccn4)cnn3c2N)cc1 | inactive | – |
| CCOc1ccccc1C(=O)NCc1ccco1 | inconclusive: 0.0928 µM [inhibitor, full curve, poor fit] | – |
| CC1=Nc2ccccc2N=C(NC(=O)CSC(=S)N2CCCCC2)C1c1ccccc1 (stereo not given) | active: 13.1 µM | – |
| COc1cc(NC(C(=O)Nc2cccc(C(C)=O)c2)c2ccccc2)cc(OC)c1OC (stereo not given) | inconclusive: 10.4 µM [inhibitor, single point] | – |
| COc1ccc(C(=O)Cc2cc(OC)c(OC)cc2[N+](=O)[O-])c(OC)c1 | inconclusive: 13.1 µM [inhibitor, single point] | – |
| Cc1ccc(-n2ccn(CC(=O)NCCc3ccccc3)c(=O)c2=O)cc1C | inactive | – |
| COc1ccc(NC(=O)C/C(C)=N/NC(=O)c2ccccn2)c(OC)c1 | inactive | – |
| Cn1nc(C(=O)N2CCc3ccccc3C2)c2ccccc2c1=O | inactive | – |
| CCNC(=S)NNC(=O)c1cc(-c2ccccc2C)nc2ccccc12 | inconclusive: 9.28 µM [inhibitor, single point] | – |
| Cc1ccccc1C(=O)NCC(=O)OC(C)C(=O)NC(C)CCc1ccccc1 (stereo not given) | inconclusive: 14.7 µM [inhibitor, single point] | – |
| COc1cc(C(=O)N2CCC(NC(=O)C(Cc3ccc(C)cc3)NC(C)=O)CC2)cc(OC)c1OC (stereo not given) | inactive | – |
| C=CCOC(=O)C1=C(C)NC(SCC(=O)NC(=O)OCC)=C(C#N)C1c1cccnc1 (stereo not given) | active: 10.4 µM | – |
| CC(Oc1cc2oc(=O)c3c(c2cc1Cl)CCC3)C(=O)N1C[C@H]2C[C@@H](C1)c1cccc(=O)n1C2 (stereo not given in full) | inconclusive: 4.15 µM [inhibitor, single point] | – |
| COc1ccc(NC(=O)CN2CCN(CC(=O)Nc3ccc(F)cc3)CC2)c(OC)c1 | inactive | – |
| Cc1ccc(C2C(C#N)=C(N)N(c3cccnc3)C3=C2C(=O)CCC3)c(C)c1 (stereo not given) | inconclusive: 10.4 µM [inhibitor, partial curve] | – |

| Compound | Potency | activity change, negative = inhibition |
| --- | --- | --- |
| O=C(CSC1=NC(=O)C(Cc2ccccc2)C(=O)N1)Nc1ncc(Br)cc1Br (stereo not given) | inconclusive: 2.94 µM [inhibitor, single point] | – |
| COc1ccc(NC(C)=O)cc1S(=O)(=O)N1CCn2cccc2C1C (stereo not given) | inconclusive: 14.7 µM [inhibitor, partial curve, poor fit] | – |
| CCOc1ccccc1NC(=O)C1Cc2ccccc2CN1S(C)(=O)=O (stereo not given) | inconclusive: 8.28 µM [inhibitor, partial curve, poor fit] | – |
| O=C(Nc1ccncc1)Nc1cccc(Cl)c1 | active: 1.47 µM | – |
| O=C(N/N=C/c1ccc(Cl)cc1Cl)c1ccc2nc[nH]c2c1 | inconclusive: 18.5 µM [inhibitor, single point] | – |
| Brc1ccc2c(c1)OCCOCCOCCOCCOCCO2 | inactive | – |
| O=C(NC1CCCCC1)[C@H](CSCc1ccccc1)N1Cc2ccccc2C1=O | inconclusive: 16.5 µM [inhibitor, single point] | – |
| Cc1c(C)n(CCN(C)C)c2ccc(C(=O)OCCN(C)C)cc12 | inconclusive: 19 µM [inhibitor, single point] and inconclusive: 18.5 µM [inhibitor, single point] | – |
| CCn1c(SCc2nc3ccccc3c(=O)[nH]2)nnc1C(C)NC(=O)c1ccccc1F (stereo not given) | inactive | – |
| COc1ccc(CC(=O)NCC2CCCN(Cc3ccc(SC)cc3)C2)cc1 (stereo not given) | inactive | – |
| COc1ccc(-c2cc(=O)oc3cc(OCC(=O)N(C)C)ccc23)cc1 | inconclusive: 0.0047 µM [inhibitor, full curve, poor fit] | – |
| Cc1ccccc1NC(=O)c1cccc2c1C(=O)N(C1CCCCC1)C2 | inconclusive: 2.62 µM [inhibitor, single point] | – |
| C/C(=N\NC(=O)c1cc(C)nc2ccccc12)c1ccco1 | inconclusive: 16.5 µM [inhibitor, partial curve, poor fit] | – |
| CNC(=O)c1ccc(NC(=O)CN2c3cccc4cccc(c34)S2(=O)=O)cc1 | inconclusive: 18.5 µM [inhibitor, partial curve, poor fit] | – |
| O=[N+]([O-])c1cc(Cl)c(O)c(-[n+]2c(-c3ccccc3)cc(-c3ccccc3)cc2-c2ccccc2)c1 | inconclusive: 16.5 µM [inhibitor, single point] | – |
| O=C(Cn1cnc2ccccc2c1=O)NCCC(=O)Nc1ccc2c(c1)OCCO2 | inactive | – |
| COc1ccccc1-n1c(C)c2c(OC)cccc(=O)c2c1C | active: 4.15 µM | – |
| CCc1ccc(-c2nc(CSCC(=O)NCc3ccco3)c(C)o2)cc1 | inconclusive: 2.33 µM [inhibitor, full curve, poor fit] | – |
| COc1ccccc1CN(Cc1cccnc1)S(=O)(=O)c1ccc(-n2cnnn2)c(OC)c1 | inconclusive: 7.38 µM [inhibitor, partial curve] | – |
| CC(=O)c1cc(F)c(N2CCN(C(=O)COc3ccccc3F)CC2)cc1C | active: 14.7 µM | – |
| CCOC(=O)/C(C#N)=C1/C=CN(Cc2ccccc2)C=N1 | inconclusive: 14.7 µM [inhibitor, single point] | – |
| CN(Cc1ccco1)c1ncnc2ccc(-c3cccc(Cl)c3)cc12 | active: 6.57 µM | – |
